# Assay results as given in the supplement of paper PMC8728848.
# The other results are listed elsewhere or left out.
# B1: LSECtin (Homo sapiens), Q6UXB4 (protein)
# chain: MEQESALRELRERVTQGLAEAGRGREDVRTELFRALEAVRLQNNSCEPCPTSWLSFEGSCYFFSVPKTTWAAAQDHCADASAHLVIVGGLDEQGFLTRNTRGRGYWLGLRAVRHLGKVQGYQWVDGVSLSFSHWNQGEPNDAWGRENCVMMLHTGLWNDAPCDSEKDGWICEKKAQLLTPPSALEPRPLQHVVSWGLLTSLAPGADCQRVFSSSSTAAESQKHLAQHSPVQPSAWALGPPCRPHPNSTHADPT
# Columns and labels:
# Assay in all cases: glycan array binding signal (z-score within array); higher = stronger binding
# Details in all cases: glycan notation: IUPAC condensed, linker removed
# Fuc(a1-2)Gal = target: Fuc(a1-2)Gal
# In short: (§1)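 Glycan array data were curated from 3228 arrays in the Consortium for Functional Glycomics database and kept only where the protein sequence was available. Glycan names were converted to IUPAC-condensed notation, and columns mapping to the same glycan were averaged. The binding signal is a within-array Z-score, averaged across arrays of the same protein sequence at different concentrations or buffers and across linkers. Negative Z-scores can be read as non-binding.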
# Fuc(a1-2)Gal(b1-3)GalNAc = target: Fuc(a1-2)Gal(b1-3)GalNAc
# In short: as §1
# [1] = target: Fuc(a1-2)Gal(b1-3)GalNAc(b1-3)Gal
# In short: as §1
# [2] = target: Fuc(a1-2)Gal(b1-3)GalNAc(b1-3)Gal(a1-4)Gal(b1-4)Glc
# In short: as §1
# [3] = target: Fuc(a1-2)Gal(b1-3)GalNAc(b1-4)[Neu5Ac(a2-3)]Gal(b1-4)Glc
# In short: as §1
# Fuc(a1-2)Gal(b1-3)GlcNAc = target: Fuc(a1-2)Gal(b1-3)GlcNAc
# In short: as §1
# [4] = target: Fuc(a1-2)Gal(b1-3)GlcNAc(b1-3)Gal(b1-4)Glc
# In short: as §1
# [5] = target: Fuc(a1-2)Gal(b1-3)[Fuc(a1-4)]GlcNAc
# In short: as §1
# Fuc(a1-2)Gal(b1-4)Glc = target: Fuc(a1-2)Gal(b1-4)Glc
# In short: as §1
# Fuc(a1-2)Gal(b1-4)Glc6S = target: Fuc(a1-2)Gal(b1-4)Glc6S
# In short: as §1
# Fuc(a1-2)Gal(b1-4)GlcNAc = target: Fuc(a1-2)Gal(b1-4)GlcNAc
# In short: as §1
# [6] = target: Fuc(a1-2)Gal(b1-4)GlcNAc(b1-3)Gal(b1-4)GlcNAc
# In short: as §1
# [7] = target: Fuc(a1-2)Gal(b1-4)GlcNAc(b1-3)Gal(b1-4)GlcNAc(b1-3)Gal(b1-4)GlcNAc
# In short: as §1
# [8] = target: Fuc(a1-2)Gal(b1-4)GlcNAc6S
# In short: as §1
# [9] = target: Fuc(a1-2)Gal(b1-4)[Fuc(a1-3)]GlcNAc
# In short: as §1
# [10] = target: Fuc(a1-2)Gal(b1-4)[Fuc(a1-3)]GlcNAc(b1-3)Gal(b1-4)[Fuc(a1-3)]GlcNAc
# In short: as §1
# [11] = target: Fuc(a1-2)Gal(b1-4)[Fuc(a1-3)]GlcNAc(b1-3)Gal(b1-4)[Fuc(a1-3)]GlcNAc(b1-3)Gal(b1-4)[Fuc(a1-3)]GlcNAc
# In short: as §1
# Fuc(a1-2)Gal6S(b1-4)Glc = target: Fuc(a1-2)Gal6S(b1-4)Glc
# In short: as §1
# [12] = target: Fuc(a1-2)Gal6S(b1-4)Glc6S
# In short: as §1
# [13] = target: Fuc(a1-2)Gal6S(b1-4)GlcNAc
# In short: as §1
# Fuc(a1-2)[Gal(a1-3)]Gal = target: Fuc(a1-2)[Gal(a1-3)]Gal
# In short: as §1
# [14] = target: Fuc(a1-2)[Gal(a1-3)]Gal(b1-3)GlcNAc
# In short: as §1
# [15] = target: Fuc(a1-2)[Gal(a1-3)]Gal(b1-4)Glc
# In short: as §1
# [16] = target: Fuc(a1-2)[Gal(a1-3)]Gal(b1-4)GlcNAc
# In short: as §1
# [17] = target: Fuc(a1-2)[Gal(a1-3)]Gal(b1-4)[Fuc(a1-3)]GlcNAc
# In short: as §1
# [18] = target: Fuc(a1-2)[Gal(a1-4)]Gal(b1-4)GlcNAc
# In short: as §1
# [19] = target: Fuc(a1-2)[GalNAc(a1-3)]Gal
# In short: as §1
# [20] = target: Fuc(a1-2)[GalNAc(a1-3)]Gal(b1-3)GlcNAc
# In short: as §1
# [21] = target: Fuc(a1-2)[GalNAc(a1-3)]Gal(b1-4)Glc
# In short: as §1
# [22] = target: Fuc(a1-2)[GalNAc(a1-3)]Gal(b1-4)GlcNAc
# In short: as §1
binder,measurement,setting,value
B1,glycan array binding signal (z-score),Fuc(a1-2)Gal,0.115
same,glycan array binding signal (z-score),Fuc(a1-2)Gal(b1-3)GalNAc,-0.303
same,glycan array binding signal (z-score),[1],-0.298
same,glycan array binding signal (z-score),[2],-0.303
same,glycan array binding signal (z-score),[3],-0.296
same,glycan array binding signal (z-score),Fuc(a1-2)Gal(b1-3)GlcNAc,-0.244
same,glycan array binding signal (z-score),[4],-0.306
same,glycan array binding signal (z-score),[5],-0.267
same,glycan array binding signal (z-score),Fuc(a1-2)Gal(b1-4)Glc,3.15
same,glycan array binding signal (z-score),Fuc(a1-2)Gal(b1-4)Glc6S,-0.241
same,glycan array binding signal (z-score),Fuc(a1-2)Gal(b1-4)GlcNAc,1.99
same,glycan array binding signal (z-score),[6],2.42
same,glycan array binding signal (z-score),[7],1.44
same,glycan array binding signal (z-score),[8],0.016
same,glycan array binding signal (z-score),[9],1.98
same,glycan array binding signal (z-score),[10],0.024
same,glycan array binding signal (z-score),[11],-0.004
same,glycan array binding signal (z-score),Fuc(a1-2)Gal6S(b1-4)Glc,1.57
same,glycan array binding signal (z-score),[12],-0.263
same,glycan array binding signal (z-score),[13],0.309
same,glycan array binding signal (z-score),Fuc(a1-2)[Gal(a1-3)]Gal,1.58
same,glycan array binding signal (z-score),[14],-0.278
same,glycan array binding signal (z-score),[15],-0.287
same,glycan array binding signal (z-score),[16],-0.303
same,glycan array binding signal (z-score),[17],0.005
same,glycan array binding signal (z-score),[18],2.9
same,glycan array binding signal (z-score),[19],1.82
same,glycan array binding signal (z-score),[20],-0.293
same,glycan array binding signal (z-score),[21],-0.304
same,glycan array binding signal (z-score),[22],-0.304
